According to patent EP4501965A1:

Tests used:
[1] = target: PLA2R-Ab in plasma pMN-2 of a PLA2R antibody-positive membranous nephropathy patient (human); test: competition ELISA (kit, PLA2R capture), RC6 at 5 µg/mL in plasma pMN-2
[2] = target: PLA2R-Ab in plasma pMN-4 of a PLA2R antibody-positive membranous nephropathy patient (human); test: competition ELISA (kit, PLA2R capture), RC6 at 5 µg/mL in plasma pMN-4
[3] = target: PLA2R-Ab in plasma pMN-7 of a PLA2R antibody-positive membranous nephropathy patient (human); test: adsorption of plasma PMN-7 on RC6-NHS Bestarose, remaining PLA2R-Ab read by ELISA kit
[4] = target: PLA2R-Ab in plasma pMN-4 of a PLA2R antibody-positive membranous nephropathy patient (human); test: adsorption of plasma PMN-4 on RC6-NHS Bestarose, remaining PLA2R-Ab read by ELISA kit
[5] = target: PLA2R-Ab in plasma pMN-7 of a PLA2R antibody-positive membranous nephropathy patient (human); test: competition ELISA (kit, PLA2R capture), RC6 at 5 µg/mL in plasma pMN-7

- Neutralization rate [1]: 96%
- Neutralization rate [2]: 82%
- clearance rate [3]: > 80%
- clearance rate [4]: > 80%
- Neutralization rate [5]: 81%
B1: RC6 (Fc fusion)
chain: [about 200 residues left out]NSHICYQFNLLSSLSWSEAHSSCQMQGGTLLSITDETEENFIREHMSSKTVEVWMGLNQLDEHAGWQWSDGTPLNYLNWSPEVNFEPFVEDHCGTFSSFMPSAWRSRDCESTLPYICKKYLNHIDHEIVEKDAWKYYATHCEPGWNPYNRNCYKLQKEEKTWHEALRSCQADNSALIDITSLAEVEFLVTLLGDENASETWIGLSSNKIPVSFEWSNDSSVIFTNWHTLEPHIFPNRSQLCVSAEQSEGHWKVKNCEERLFYICKKAGHVLSDGGGGSGGG[human IgG1 Fc and a few adjoining residues left out]
